# Reference: the supplement of paper PMC8728848
# This is one part of the list.
# Tests used:
# Assay in all cases: glycan array binding signal (z-score within array); higher = stronger binding
# Conditions in all cases: glycan notation: IUPAC condensed, linker removed
# [1] = biological target: Man(a1-2)Man(a1-3)[Man(a1-2)Man(a1-6)]Man(a1-6)[Man(a1-2)Man(a1-2)Man(a1-3)]Man(b1-4)GlcNAc(b1-4)GlcNAc
# Summary of the method: (§1)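 Glycan array data were curated from 3228 arrays in the Consortium for Functional Glycomics database and kept only where the protein sequence was available. Glycan names were converted to IUPAC-condensed notation, and columns mapping to the same glycan were averaged. The binding signal is a within-array Z-score, averaged across arrays of the same protein sequence at different concentrations or buffers and across linkers. Negative Z-scores can be read as non-binding.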
# [2] = biological target: Man(a1-2)Man(a1-3)[Man(a1-6)]Man(a1-6)[Man(a1-2)Man(a1-3)]Man(b1-4)GlcNAc(b1-4)GlcNAc
# Summary of the method: as §1
# [3] = biological target: Man(a1-2)Man(a1-6)[Man(a1-3)]Man(a1-6)[Man(a1-2)Man(a1-2)Man(a1-3)]Man
# Summary of the method: as §1
# [4] = biological target: Man(a1-2)Man(a1-6)[Man(a1-3)]Man(a1-6)[Man(a1-2)Man(a1-2)Man(a1-3)]Man(b1-4)GlcNAc(b1-4)GlcNAc
# Summary of the method: as §1
# [5] = biological target: Man(a1-3)[Man(a1-6)]Man
# Summary of the method: as §1
# [6] = biological target: Man(a1-3)[Man(a1-6)]Man(a1-6)[Man(a1-2)Man(a1-3)]Man(b1-4)GlcNAc(b1-4)GlcNAc
# Summary of the method: as §1
# [7] = biological target: Man(a1-3)[Man(a1-6)]Man(a1-6)[Man(a1-3)]Man
# Summary of the method: as §1
# [8] = biological target: Man(a1-3)[Man(a1-6)]Man(a1-6)[Man(a1-3)]Man(b1-4)GlcNAc(b1-4)GlcNAc
# Summary of the method: as §1
# [9] = biological target: Man(a1-3)[Man(a1-6)]Man(b1-4)GlcNAc(b1-4)GlcNAc
# Summary of the method: as §1
# [10] = biological target: Man(a1-3)[Man(a1-6)]Man(b1-4)GlcNAc(b1-4)[Fuc(a1-6)]GlcNAc
# Summary of the method: as §1
# [11] = biological target: Man(a1-6)Man
# Summary of the method: as §1
# [12] = biological target: Man(b1-4)GlcNAc
# Summary of the method: as §1
# [13] = biological target: Neu5Ac(a2-3)Gal
# Summary of the method: as §1
# [14] = biological target: Neu5Ac(a2-3)Gal(b1-3)GalNAc
# Summary of the method: as §1
# [15] = biological target: Neu5Ac(a2-3)Gal(b1-3)GalNAc(b1-3)Gal(a1-4)Gal(b1-4)Glc
# Summary of the method: as §1
# [16] = biological target: Neu5Ac(a2-3)Gal(b1-3)GalNAc(b1-4)[Neu5Ac(a2-3)]Gal(b1-4)Glc
# Summary of the method: as §1
# [17] = biological target: Neu5Ac(a2-3)Gal(b1-3)GalNAc(b1-4)[Neu5Ac(a2-8)Neu5Ac(a2-3)]Gal(b1-4)Glc
# Summary of the method: as §1
# [18] = biological target: Neu5Ac(a2-3)Gal(b1-3)GalNAc6S
# Summary of the method: as §1
# [19] = biological target: Neu5Ac(a2-3)Gal(b1-3)GlcNAc
# Summary of the method: as §1
# [20] = biological target: Neu5Ac(a2-3)Gal(b1-3)GlcNAc(b1-2)Man(a1-3)[GlcNAc(b1-4)][Neu5Ac(a2-3)Gal(b1-3)GlcNAc(b1-2)Man(a1-6)]Man(b1-4)GlcNAc(b1-4)GlcNAc
# Summary of the method: as §1
# [21] = biological target: Neu5Ac(a2-3)Gal(b1-3)GlcNAc(b1-3)Gal(b1-3)GlcNAc
# Summary of the method: as §1
# [22] = biological target: Neu5Ac(a2-3)Gal(b1-3)GlcNAc(b1-3)Gal(b1-4)GlcNAc
# Summary of the method: as §1
# [23] = biological target: Neu5Ac(a2-3)Gal(b1-3)GlcNAc(b1-3)GalNAc
# Summary of the method: as §1
# [24] = biological target: Neu5Ac(a2-3)Gal(b1-3)GlcNAc(b1-6)GalNAc
# Summary of the method: as §1
# [25] = biological target: Neu5Ac(a2-3)Gal(b1-3)GlcNAc6S
# Summary of the method: as §1
# [26] = biological target: Neu5Ac(a2-3)Gal(b1-3)[Fuc(a1-4)]GlcNAc
# Summary of the method: as §1
# [27] = biological target: Neu5Ac(a2-3)Gal(b1-3)[Fuc(a1-4)]GlcNAc(b1-3)Gal(b1-3)[Fuc(a1-4)]GlcNAc
# Summary of the method: as §1
# [28] = biological target: Neu5Ac(a2-3)Gal(b1-3)[Fuc(a1-4)]GlcNAc(b1-3)Gal(b1-4)[Fuc(a1-3)]GlcNAc
# Summary of the method: as §1
# [29] = biological target: Neu5Ac(a2-3)Gal(b1-3)[Neu5Ac(a2-3)Gal(b1-4)]GlcNAc
# Summary of the method: as §1
# [30] = biological target: Neu5Ac(a2-3)Gal(b1-3)[Neu5Ac(a2-6)]GalNAc
# Summary of the method: as §1
# [31] = biological target: Neu5Ac(a2-3)Gal(b1-3)[Neu5Ac(a2-6)]GlcNAc(b1-3)[Fuc(a1-3)[Gal(b1-4)]GlcNAc(b1-6)]Gal(b1-4)Glc
# Summary of the method: as §1
# [32] = biological target: Neu5Ac(a2-3)Gal(b1-4)Glc
# Summary of the method: as §1
# [33] = biological target: Neu5Ac(a2-3)Gal(b1-4)GlcNAc
# Summary of the method: as §1
# [34] = biological target: Neu5Ac(a2-3)Gal(b1-4)GlcNAc(b1-2)Man
# Summary of the method: as §1
# [35] = biological target: Neu5Ac(a2-3)Gal(b1-4)GlcNAc(b1-2)Man(a1-3)[GlcNAc(b1-2)Man(b1-4)GlcNAc(b1-2)Man(a1-6)]Man(b1-4)GlcNAc(b1-4)GlcNAc
# Summary of the method: as §1
# [36] = biological target: Neu5Ac(a2-3)Gal(b1-4)GlcNAc(b1-2)Man(a1-3)[Neu5Ac(a2-3)Gal(b1-4)GlcNAc(b1-2)Man(a1-6)]Man(b1-4)GlcNAc(b1-4)[Fuc(a1-6)]GlcNAc
# Summary of the method: as §1
# [37] = biological target: Neu5Ac(a2-3)Gal(b1-4)GlcNAc(b1-2)Man(a1-3)[Neu5Ac(a2-6)Gal(b1-4)GlcNAc(b1-2)Man(a1-6)]Man(b1-4)GlcNAc(b1-4)GlcNAc
# Summary of the method: as §1
# [38] = biological target: Neu5Ac(a2-3)Gal(b1-4)GlcNAc(b1-2)[Neu5Ac(a2-3)Gal(b1-4)GlcNAc(b1-6)]Man(a1-6)[Neu5Ac(a2-3)Gal(b1-4)GlcNAc(b1-2)Man(a1-3)]Man(b1-4)GlcNAc(b1-4)GlcNAc
# Summary of the method: as §1
# [39] = biological target: Neu5Ac(a2-3)Gal(b1-4)GlcNAc(b1-3)Gal
# Summary of the method: as §1
# [40] = biological target: Neu5Ac(a2-3)Gal(b1-4)GlcNAc(b1-3)Gal(b1-3)GlcNAc
# Summary of the method: as §1
# [41] = biological target: Neu5Ac(a2-3)Gal(b1-4)GlcNAc(b1-3)Gal(b1-4)GlcNAc
# Summary of the method: as §1
# [42] = biological target: Neu5Ac(a2-3)Gal(b1-4)GlcNAc(b1-3)Gal(b1-4)GlcNAc(b1-3)Gal(b1-4)GlcNAc
# Summary of the method: as §1
# [43] = biological target: Neu5Ac(a2-3)Gal(b1-4)GlcNAc(b1-3)Gal(b1-4)[Fuc(a1-3)]GlcNAc
# Summary of the method: as §1
# [44] = biological target: Neu5Ac(a2-3)Gal(b1-4)GlcNAc(b1-3)GalNAc
# Summary of the method: as §1
# [45] = biological target: Neu5Ac(a2-3)Gal(b1-4)GlcNAc(b1-3)[Neu5Ac(a2-3)Gal(b1-4)GlcNAc(b1-6)]GalNAc
# Summary of the method: as §1
# [46] = biological target: Neu5Ac(a2-3)Gal(b1-4)GlcNAc(b1-6)GalNAc
# Summary of the method: as §1
# [47] = biological target: Neu5Ac(a2-3)Gal(b1-4)GlcNAc(b1-6)[Gal(b1-3)]GalNAc
# Summary of the method: as §1
# [48] = biological target: Neu5Ac(a2-3)Gal(b1-4)GlcNAc(b1-6)[Neu5Ac(a2-3)Gal(b1-3)]GalNAc
# Summary of the method: as §1
# [49] = biological target: Neu5Ac(a2-3)Gal(b1-4)GlcNAc6S
# Summary of the method: as §1
# [50] = biological target: Neu5Ac(a2-3)Gal(b1-4)[Fuc(a1-3)]GlcNAc
# Summary of the method: as §1
# [51] = biological target: Neu5Ac(a2-3)Gal(b1-4)[Fuc(a1-3)]GlcNAc(b1-3)Gal
# Summary of the method: as §1
# [52] = biological target: Neu5Ac(a2-3)Gal(b1-4)[Fuc(a1-3)]GlcNAc(b1-3)Gal(b1-4)GlcNAc
# Summary of the method: as §1
# [53] = biological target: Neu5Ac(a2-3)Gal(b1-4)[Fuc(a1-3)]GlcNAc(b1-3)Gal(b1-4)[Fuc(a1-3)]GlcNAc(b1-3)Gal(b1-4)[Fuc(a1-3)]GlcNAc
# Summary of the method: as §1
# [54] = biological target: Neu5Ac(a2-3)Gal(b1-4)[Fuc(a1-3)]GlcNAc(b1-3)GalNAc
# Summary of the method: as §1
# [55] = biological target: Neu5Ac(a2-3)Gal(b1-4)[Fuc(a1-3)]GlcNAc(b1-6)[Gal(b1-3)]GalNAc
# Summary of the method: as §1
# [56] = biological target: Neu5Ac(a2-3)Gal(b1-4)[Fuc(a1-3)]GlcNAc6S
# Summary of the method: as §1
# [57] = biological target: Neu5Ac(a2-3)Gal6S(b1-4)GlcNAc
# Summary of the method: as §1
binder,measurement,setting,value
"Strep tagII-anxA1 (Homo sapiens), P04083 (protein) MAMVSEFLKQAWFIENEEQEYVQTVKSSKGGPGSAVSPYPTFNPSSDVAALHKAIMVKGVDEATIIDILTKRNNAQRQQIKAAYLQETGKPLDETLKKALTGHLEEVVLALLKTPAQFDADELRAAMKGLGTDEDTLIEILASRTNKEIRDINRVYREELKRDLAKDITSDTSGDFRNALLSLAKGDRSEDFGVNEDLADSDARALYEAGERRKGTDVNVFNTILTTRSYPQLRRVFQKYTKYSKHDMNKVLDLELKGDIEKCLTAIVKCATSKPAFFAEKLHQAMKGVGTRHKALIRIMVSRSEIDMNDIKAFYQKMYGISLCQAILDETKGDYEKILVALCGGN",glycan array binding signal (z-score),[1],0.464
same,glycan array binding signal (z-score),[2],2.1
same,glycan array binding signal (z-score),[3],-0.63
same,glycan array binding signal (z-score),[4],-0.171
same,glycan array binding signal (z-score),[5],-0.433
same,glycan array binding signal (z-score),[6],-0.255
same,glycan array binding signal (z-score),[7],0.012
same,glycan array binding signal (z-score),[8],-0.658
same,glycan array binding signal (z-score),[9],0.397
same,glycan array binding signal (z-score),[10],2.06
same,glycan array binding signal (z-score),[11],-0.526
same,glycan array binding signal (z-score),[12],-0.718
same,glycan array binding signal (z-score),[13],-0.238
same,glycan array binding signal (z-score),[14],-0.389
same,glycan array binding signal (z-score),[15],0.255
same,glycan array binding signal (z-score),[16],-0.502
same,glycan array binding signal (z-score),[17],-0.624
same,glycan array binding signal (z-score),[18],-0.417
same,glycan array binding signal (z-score),[19],-0.596
same,glycan array binding signal (z-score),[20],2.14
same,glycan array binding signal (z-score),[21],-0.701
same,glycan array binding signal (z-score),[22],-0.67
same,glycan array binding signal (z-score),[23],0.092
same,glycan array binding signal (z-score),[24],1.8
same,glycan array binding signal (z-score),[25],-0.563
same,glycan array binding signal (z-score),[26],-0.529
same,glycan array binding signal (z-score),[27],-0.656
same,glycan array binding signal (z-score),[28],-0.74
same,glycan array binding signal (z-score),[29],-0.763
same,glycan array binding signal (z-score),[30],0.669
same,glycan array binding signal (z-score),[31],0.429
same,glycan array binding signal (z-score),[32],-0.677
same,glycan array binding signal (z-score),[33],-0.209
same,glycan array binding signal (z-score),[34],0.94
same,glycan array binding signal (z-score),[35],-0.74
same,glycan array binding signal (z-score),[36],-0.335
same,glycan array binding signal (z-score),[37],-0.474
same,glycan array binding signal (z-score),[38],2.52
same,glycan array binding signal (z-score),[39],-0.629
same,glycan array binding signal (z-score),[40],-0.641
same,glycan array binding signal (z-score),[41],-0.689
same,glycan array binding signal (z-score),[42],-0.732
same,glycan array binding signal (z-score),[43],-0.696
same,glycan array binding signal (z-score),[44],-0.459
same,glycan array binding signal (z-score),[45],-0.103
same,glycan array binding signal (z-score),[46],-0.535
same,glycan array binding signal (z-score),[47],-0.534
same,glycan array binding signal (z-score),[48],-0.525
same,glycan array binding signal (z-score),[49],-0.626
same,glycan array binding signal (z-score),[50],-0.546
same,glycan array binding signal (z-score),[51],-0.494
same,glycan array binding signal (z-score),[52],-0.575
same,glycan array binding signal (z-score),[53],-0.668
same,glycan array binding signal (z-score),[54],0.181
same,glycan array binding signal (z-score),[55],-0.451
same,glycan array binding signal (z-score),[56],-0.736
same,glycan array binding signal (z-score),[57],-0.312
